Results as given in PMC4336329 (PLoS ONE, 2015).
Screen size: about 310,000 compounds; about 2,200 (0.71%) showed an effect of 50% or more. Effects have a minus sign here. The list shows a part of the results.

The compounds below were run against human ether-à-go-go-related gene (hERG) potassium channel (human, UniProt Q12809) (assay: primary screen, population patch clamp on CHO cells stably expressing hERG).
Sequence of human ether-à-go-go-related gene (hERG) potassium channel (Q12809 whole entry, looked up): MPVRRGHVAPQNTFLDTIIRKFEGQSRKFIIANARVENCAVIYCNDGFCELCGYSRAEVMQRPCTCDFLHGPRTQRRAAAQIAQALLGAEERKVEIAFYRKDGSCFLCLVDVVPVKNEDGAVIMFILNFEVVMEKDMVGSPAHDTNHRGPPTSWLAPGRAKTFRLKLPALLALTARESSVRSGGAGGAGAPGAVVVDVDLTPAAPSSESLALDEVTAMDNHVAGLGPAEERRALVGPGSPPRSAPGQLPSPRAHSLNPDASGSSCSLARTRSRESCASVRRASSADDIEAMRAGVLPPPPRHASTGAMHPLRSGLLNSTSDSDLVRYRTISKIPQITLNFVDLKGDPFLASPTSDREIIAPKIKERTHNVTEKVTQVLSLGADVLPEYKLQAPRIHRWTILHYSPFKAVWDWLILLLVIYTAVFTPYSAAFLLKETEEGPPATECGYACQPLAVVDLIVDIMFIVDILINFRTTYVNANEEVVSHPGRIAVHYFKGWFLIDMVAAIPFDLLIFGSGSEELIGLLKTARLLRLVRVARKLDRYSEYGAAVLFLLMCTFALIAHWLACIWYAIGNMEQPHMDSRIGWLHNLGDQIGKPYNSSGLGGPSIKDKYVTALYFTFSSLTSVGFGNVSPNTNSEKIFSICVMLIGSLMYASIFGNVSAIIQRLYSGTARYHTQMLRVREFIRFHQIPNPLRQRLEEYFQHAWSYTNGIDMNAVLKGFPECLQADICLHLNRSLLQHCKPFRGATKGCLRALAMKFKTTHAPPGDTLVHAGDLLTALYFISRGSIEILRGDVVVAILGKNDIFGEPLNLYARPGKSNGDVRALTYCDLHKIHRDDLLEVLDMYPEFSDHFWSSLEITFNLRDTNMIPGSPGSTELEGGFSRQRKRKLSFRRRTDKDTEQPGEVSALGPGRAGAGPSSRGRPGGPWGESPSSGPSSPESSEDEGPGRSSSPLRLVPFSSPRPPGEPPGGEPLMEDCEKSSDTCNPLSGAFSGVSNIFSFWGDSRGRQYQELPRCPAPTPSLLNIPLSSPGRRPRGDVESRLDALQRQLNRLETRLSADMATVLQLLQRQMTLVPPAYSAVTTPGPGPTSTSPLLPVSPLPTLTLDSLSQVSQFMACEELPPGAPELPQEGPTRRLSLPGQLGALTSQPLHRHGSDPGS

Row | Compound | hERG current change (%, negative = inhibition) at 1uM [%]
1 | Cc1ccc(NS(=O)(=O)c2ccc3c(c2)NC(=O)CO3)cc1 | 12.7
2 | c1cncc(-c2nc3ccccc3[nH]2)c1 | 7.52
3 | CNC(=S)N1CCN(c2nc(-c3ccc(Cl)cc3)cs2)CC1 | 12.3
4 | COCC(C)NC(=O)Cc1ccc(Cl)cc1 (stereo not drawn) | 11.7
5 | COc1ccc(C(=O)/C=C/c2ccccc2)c(O)c1 | 9.42
6 | Cc1ccc(S(=O)(=O)NNC(=S)NC(=O)c2ccc([N+](=O)[O-])cc2)cc1 | 7.33
7 | CC(C)NC(=S)N/N=C/c1ccc2c(c1)OCCO2 | -0.153
8 | CCN(CC)c1ccc(/C=C(/C#N)C(=O)NC(C)C)o1 | 8.51
9 | O=C(CSc1nnc2c(n1)[nH]c1ccccc12)Nc1ccc(N2CCOCC2)cc1 | 11.6
10 | CC(C)Cn1c(SCC(=O)N2CCCCC2)nc2ccccc2c1=O | -5.24
11 | Cc1cc(NS(=O)(=O)c2ccc(NC(=O)Nc3ccc4c(c3)OCO4)cc2)no1 | 15.7
12 | Cc1c(NC(=O)C(C)OC(=O)c2ccc(Br)o2)c(=O)n(-c2ccccc2)n1C (stereo not drawn) | 13.9
13 | COc1cc([N+](=O)[O-])ccc1NC(=S)NCc1ccccn1 | 8.38
14 | CCOC(=O)C(=CNc1cccc(N)n1)C(=O)OCC | -5.43
15 | N#CCN1CCN(CC(=O)Nc2ccc(OCc3ccccc3)cc2)CC1 | 6.88
16 | Cc1ccc(C(=O)N/N=C2\CC3CC=CC23)c(C)c1 (stereo not drawn) | 10.8
17 | CCOc1ccccc1CNS(=O)(=O)c1csc(C(N)=O)c1 | 16.4
18 | CCOc1ccc(CCNC(=O)COC(=O)Cc2ccc(F)cc2)cc1OCC | 1.13
19 | CC(C)(C)S(=O)(=O)/C(C#N)=N/Nc1ccc(S(C)(=O)=O)cc1 | 16.4
20 | O=C(O)CCCCCNC(=O)C(=O)C1C(=O)Nc2ccccc21 (stereo not drawn) | 12.5
21 | CCc1ccc(OCC(=O)N(C)CCC#N)c(Br)c1 | -0.573
22 | COc1cccc(CNC(=O)CCC2CCCN(C3CCOCC3)C2)c1 (stereo not drawn) | 4.76
23 | CCOC(=O)C1CCCN(c2nc3ccccc3nc2NS(=O)(=O)c2ccc(C)cc2)C1 (stereo not drawn) | -12.4

Row | Compound | hERG current change (%, negative = inhibition) at 1uM [%]
24 | COc1ccccc1OC(=O)CCc1nc2ccccc2s1 | -1.48
25 | CCN(CC)S(=O)(=O)c1ccc(/C=C/C(=O)OCC(=O)Nc2cccnc2Cl)cc1 | 1.45
26 | CCOC(=O)C(=O)Nc1ccccc1C(=O)OC | 10.2
27 | Cc1sc2nc(SCC(=O)N3CCCCC3)[nH]c(=O)c2c1C | 6.38
28 | CC(C)C(=O)N1CCN(c2ccccc2NC(=S)NC(=O)Cc2ccccc2)CC1 | 5
29 | Cc1ccc(C(=O)NNC(=O)CSc2nnc(-c3ccncc3)n2C)cc1 | 10
30 | NC(=O)CSc1c[nH]c2ccccc12 | -0.731
31 | COc1ccc(/C=C2\SC(=S)N(NS(=O)(=O)c3ccc(C)cc3)C2=O)c(OC)c1 | 12.2
32 | Cc1ccc(C)c(-c2[nH]ncc2CN2CCCC(CO)(Cc3ccccc3C)C2)c1 (stereo not drawn) | -5.7
33 | Cc1cccc(OCCc2c(C)[nH]c(=S)[nH]c2=O)c1 | 5.54
34 | CC(=O)N1CC(=O)Nc2ccc(C)cc2C1c1ccccc1 (stereo not drawn) | 12.4
35 | CC(=O)Nc1ccc(C#Cc2ccc(NC(C)=O)cc2)cc1 | 13
36 | CCN(CC(=O)Nc1c(F)cccc1F)C(=O)Cc1n[nH]c(=O)c2ccccc12 | 20
37 | Cc1ccccc1-n1nc(SCC(=O)O)sc1=S | 15
38 | NC(=O)CN1CCN(C(=O)Nc2ccccc2)CC1 | 0.355
39 | O=C(C1CCCN1S(=O)(=O)c1ccc(Cl)c(Cl)c1)N1CCCCC1 (stereo not drawn) | 9.67
40 | O=C(COc1ccc(Br)cc1Br)NN1C(=O)c2ccccc2C1=O | -12.6
41 | Cn1c(SCc2nc3ccccc3[nH]2)nnc1-c1cccnc1 | 13.7
42 | CCOc1ccc(NC(=O)CSc2nnc(-c3ccccn3)n2C)cc1 | 8.33
43 | CCOc1ccc(OCCC(=O)OCC(=O)Nc2ccc3c(c2)OCCO3)cc1 | -0.445
44 | CCOC(=O)C1CCN(CC(=O)Nc2c(C(=O)OC)[nH]c3ccc(Cl)cc23)CC1 | -8.95
45 | CC(/C=N/NC(=O)c1ccc2nc(C)[nH]c2c1)=C\c1ccccc1 | -3.8
